Laboratory results reported in the RNAGym collection of RNA variant scans (doi:10.1093/nar/gkz1192).
Read counts are not given, so values of variants with three or more changes are uncertain.

B1: CPEB3 Ribozyme (parent)
chain: UAACAGGGGGCCACAGCAGAAGCGUUCACGUCGCAGCCCCUGUCAGAUUCUGGUGAAUCUGCGAAUUCUGCUGUAUAUCUC

Variants of: B1
Experiment: self-cleavage, relative activity (ratio to wild type); higher = more cleavage; in vitro, sequencing
Procedure, shortened: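 CPEB3 self-cleaving ribozyme mutant libraries were made by rounds of error-prone PCR, barcoded, and transcribed in vitro with T7 RNA polymerase for 5 hours at 37°C. Cleavage occurred during transcription and a 15 min DNase I step before EDTA stop. RNAs were reverse transcribed with template switching and Illumina-sequenced, with DNA sequencing mapping barcodes to variants. Relative activity is the variant's cleaved/total read fraction divided by wild type's (minimum 5 reads), averaged across three batches.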

| Variant | self-cleavage |
| --- | --- |
| UAACAGGAGGCCACAGCAGAAGCGUUCACGUCGCAGCCCCUGUCAGAUUCUGGUGGAUCUGAGAAUACUGCUGUAUAUCUC | 0.06 |
| UAACAGGAGGCCACAGCAGAAGCGUUCACGUCGCAGCCCCUGUCAGAUUCUGGUGAGUCUGCGGAUUCUGCUGUAUAUCUC | 0.06 |
| UAACAGGAGGACACAGCAGGAGCGUUCACGUCGCAGCCCCUGUCAGAUUCUGGUGGAUCUGCGAACUCUGCUGUAUUUCUC | 0.1 |
| UAACAGGAGGACACAGCAGAAGCGUACACGUCGCAGCCCUUGUCAGUUUCUGGUGAAUCUGCGAAUUCUGCGGUAUAUCUC | 0.06 |
| UAACAGGAGGACACAGCAGAAGCGUUCACGUCGCAGCCCCCGUCAGAUUCUGGCGAAUCUGCGAACUCUGCUGUAUAUCUC | 0.05 |
| UAACAGGAGGGCACAGCAGAAGCGUUCACGUCGCAGCCUCUGUCAGAUUCUGGCGAAUCUGCGAAUUCUGCUGUAUUUCUC | 0.08 |
| UAACAGGAGGUCACAGCAGAAGCGUUCACGUCGCAGCCCCUGACAGAUUCUGGUGAAUCUGCGAAUUCUGCCGUAUACCUC | 0.12 |
| UAACAGGAGGCAGCAGCAGAAGCGUUCACGUCGCAGCCCCUGACAGAUUCUGGUGAAUCUGCGAGUUCUGCAGUGUAUCUC | 0.1 |
| UAACAGGAGGCAACAGCAGAAGCGUUCACGUCGCAGCUCCUGUCAGAUUGUGGUGAAUCUGCGAACCCUGCUGUAUAUCCC | 0.04 |
| UAACAGGAGGCUACAGCAGUAGCGUUCACGUCGCAGCCCCUGUCAGAUUCUGGUGAAUCUGCGAAUUCUGCCGUAUAUCUC | 0.04 |
| UAACAGGAGGCCAAGGCAGAAGCGUUCACGUCGCUGCCCCUGUCAGAUUCUGGUGAGUCUGCGAAUUCUGCUGUAUAUCUC | 0.05 |
| UAACAGGAGGCCAAAGCAGAAGCGUUCACGUCGCAGCCCCAGUCAGAUUCUGGUGAAUCUGCGAAUUCUGCUGUAUAUCUC | 0.15 |
| UAACAGGAGGCCAGAGCAGAGGCGUUCACGGCGCAGUCCCUGUCAGAUUCUGGUGAAUCUGCGAAUCCUGCUGUAUAUCUC | 0.05 |
| UAACAGGAGGCCACAGCAGAAGGGUUCACGUCGCAGCCCCUGUCAGAUUCUGGUGAAUCAGCGAAUCCUGCAGUAUAACUC | 0.04 |
| UAACAGGAGGCCACAGCAGAAGUGUUCACGUCGCAGCCCCUGAAAGAUUCUGGUGUAUCAGCGAAUUCUGCUGUAUAUCUC | 0.06 |
| UAACAGGAGGCCACAGCAGAAGCGUUAACGUCGCAGCCCUUGUCAGAUUCUGGUGAAUCUGCGAAUUCUGCUGUAUAUCAC | 0.15 |
| UAACAGGAGGCCACAGCAGAAGCGUUCAAGUCGCGGCCCCUGUCAGAUCCUGGUGAAUCUGCGAAUUCUGCUGUAUAUCUC | 0.06 |

| Variant | self-cleavage |
| --- | --- |
| UAACAGGAGGCCACAGCAGAAGCGUUCAGGUCGCAGCCCCUGUCAGAUUCUGGAGGAUCUGCGAAUUCUGCUGUAUAUCUC | 0.05 |
| UAACAGGAGGCCACAGCAGAAGCGUUCACGUAGCAGCCCCCGUCAGAUUCUGGUGAAUCUGCGAAUUCUGCUGUAUAUCUC | 0.21 |
| UAACAGGAGGCCACAGCAGAAGCGUUCACGUCGGAGCCCCUGUCAGAUUCUGGCGAAUCUGCGAAUUCUGCUGUAUAUCUC | 0.06 |
| UAACAGGAGGCCACAGCAGAAGCGUUCACGUCGUAGCCCCUGUCAGAUUUUGGCGAAUCUGCGAAUUCUGCUGUAUAUCUC | 0.12 |
| UAACAGGAGGCCACAGCAGAAGCGUUCACGUCGCAGACCCUGUCAGAUUCUGGUGAAUCUGCGAGUUCUGCCGUAUAUCUC | 0.04 |
| UAACAGGAGGCCACAGCAGAAGCGUUCACGUCGCAGUCCCUGUCGGAUCCUGGUGAAUCUGCGAAUUCUGCUGUAUAUCUC | 0.06 |
| UAACAGGAGGCCACAGCAGAAGCGUUCACGUCGCAGCCUCCGUCAGACCCUGGUGAAUCUGCGAAUUCUGCUGUAUAUCUC | 0.13 |
| UAACAGGAGGCCACAGCAGAAGCGUUCACGUCGCAGCCCGUGUCAGAUUAUGGUGAAUCUGCGAAUUCUGCUGUAUAUCUC | 0.06 |
| UAACAGGACGCCACAGCAGAAGCGUACACGUUGCAGCCCCUGUCAGAUUCGGGUGUAUCUGCGAAUCCUGCUGUAUAUCUC | 0.05 |
| UAACAGGAGACCACAGCAGAAGCGUUCACGCCGCAGCCCCUGUCAGAUUCUGGUGAAACUGCGAAUUCUGCUGUAUAUCUC | 0.07 |
| UAACAGGAGACCACAGCAGAAGCGUUCACGUCGCAGCCCCUGACAGAUUCUGGUCAAUCUGCGAAUUCUGCUGUAUAUCUC | 0.1 |
| UAACAGGAGACCACAGCAGAAGCGUUCACGUCGCAGCCCCUGUCAGAUUCCGGCGAAUCUGCGAAUUCUGCUGUAUAUCUC | 0.05 |
| UAACAGGAGCCCACAGCAGAAGGGUUCACGUCGCAGCCCCUGUCAGAUUCUGGUGGAUCUGCGAAUCCAUCUGUAUAUCUC | 0.04 |
| UAACAGGAGUCCACGGCAGAAGCGUUCACGUCGCAGCCCCUGUCAGAUUCUGGUGAAUCUGCGAACUCUGCCGUAUAUCUC | 0.04 |
| UAACAGGAGGCCACAACAGGAGCGUUCACGUCGCAGCCCCAGUCAGAUUCUGGUGAAUCUGCGAAUACUGCUGUAUAUCUC | 0.07 |
| UAACAGGAGGCCACACCAGGAGCGAUCACGUCGCAGCCCCUGUCAGAUUCUGGUGAAUCUGCGAAUUCUGCUGUAUUCCUC | 0.03 |
| UAACAGGAGGCCACAGCAUUAGCGUUCACGUCGCAACCCCCGUCAGAUUCUGGUGAAUCUGCGGAUUCUGCUGUACAUCUC | 0.03 |
